The supplement of paper PMC11417369
± gives the standard deviation of the averaged measurements. The list shows a part of the results.

Tested on: PfAP2-I AP2 domain 3 (GST-tagged)
Test: gcPBM binding intensity (ln(normalized median fluorescence intensity)); higher = stronger DNA binding
Procedure, shortened: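 After 1 h on an Agilent 4 × 180k array of primer-extended double-stranded 36-bp intergenic genomic probes and negative controls, bound GST-tagged P. falciparum DNA-binding domains were detected with Alexa488 anti-GST antibody and scanned at 488 nm. The domains had been expressed in E. coli, and binding took place in 1× PBS with 1% milk, 0.2 mg/ml BSA, 0.5% salmon testes DNA and 0.03% Triton X-100. Binding intensity is the highest Masliner-normalised natural-log median intensity across replicate spots of either probe orientation.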

In order of rising “gcPBM binding intensity (ln)” value:
1. AAAAAAAATTATTATGAACACACATTTATTATATTC [CACACA_site8443]  7.3 ± 0.56
2. AAAAAAAAAAGACATGCATACGCTAATTTTTAGTTG [TGCATGCA_site300]  7.36 ± 0.54
3. TTTATATATATAAATATGTAGATAACAATATTCTGA [TGCATGCA_negctrl_site554]  7.38 ± 0.45
4. TTGTTCAAACAAAAAATAAAATAATTGAAAATAAAA [CACACA_negctrl_site812]  7.43 ± 0.71
5. AAAAAATGATAATATACACACTTATGGGAGAGCGCA [CACACA_site5398]  7.44 ± 0.61
6. TATTGATTATTTGAATGTACTTATTATATTAAATAT [XGTACX_site1304]  7.57 ± 0.13
7. AAATATATATATAGTTGTACATATATCGTATATATT [XGTACX_site7867]  7.57 ± 0.45
8. AATATTAAACAAAATAAATATATAAAAAATAAATAA [GTGCAC_negctrl_site93]  7.58 ± 0.5
9. TAATATGATCTTAATAGTACTTTATTAATAATAACC [XGTACX_site1953]  7.59 ± 0.49
10. ATTATGTTTCTTTTTTTTTTTAAAGGATGTCTTTTT [CACACA_negctrl_site974]  7.59 ± 0.78
11. ATATATTTTTAAAAAAATTAAGAATTTTACATCTCC [CACACA_negctrl_site1450]  7.59 ± 0.65
12. TATATATGTTTATGTAGTACTATATATCCCTTTCTT [XGTACX_site7049]  7.61 ± 0.53
13. TATTTAATACGGACTCATAAATCTTAATAAAAAAAA [CACACA_negctrl_site434]  7.61 ± 0.25
14. TATAAATATATATACACACACATATATATTATATAT [CACACA_site596]  7.61 ± 0.37
15. AATAAAAATATTTTTACATGCAAATGTTATATATTT [TGCATGCA_site1056]  7.64 ± 0.78
16. AAAAATAAAATGGACACACACGTTCAAATTTAGATT [CACACA_site5186]  7.65 ± 0.71
17. TAGAATAAGATAGATATACACACCATTATAAATATA [CACACA_site2500]  7.67 ± 0.38
18. AAAAAAAAATATATAAACACACATATTTATATACAC [GTGCAC_negctrl_site545]  7.67 ± 0.41
19. AAAAAAAAAAGACACACACACAAAAAAAGATATATA [CACACA_site6645]  7.68 ± 0.59
20. ACACGCACATATATATAAATATATATATATATAAAT [CACACA_negctrl_site1781]  7.75 ± 0.26
21. TTATTTAAATAATATGTACACACATTTAAAAAATTA [CACACA_site8912]  7.83 ± 0.2
22. AATGTTTATTTTGTTTGTACATAAAATGAATAAAAT [XGTACX_site1456]  7.86 ± 0.35
23. TTATTCCTTTTCCTTTTTTTTTTTTAACCAAAAAAA [CACACA_negctrl_site309]  7.86 ± 0.4
24. AAAATATACATATATGCATGCATATAAATAAAAAAA [TGCATGCA_site812]  7.86 ± 0.75
25. GCACACATATAATAATGTACATATATATATTTAAAA [XGTACX_site4561]  7.96 ± 0.44
26. TTACAAAATAAGAGGCACAAACACAAAAAAAAATAA [CACACA_negctrl_site574]  7.97 ± 0.58
27. GTTTTTTTGTTTTAAAGTACTTAAAAAAAAAATATA [XGTACX_site6998]  8 ± 0.13
28. ATACATAAATTTTGTACACACAAAAAAAAAAAAGCT [CACACA_site1351]  8.04 ± 0.58
29. AGTTGTTACGAACATACACACGAACATAGACACGGA [CACACA_site8102]  8.04 ± 0.73
30. CACGCACAGATATATACACACTTTTATTTAAATAAC [CACACA_site6852]  8.06 ± 0.28
31. GTTATATATTTTTATGCATGCATTTTTAAATATATA [TGCATGCA_site175]  8.1 ± 0.63
32. ATGAGTGTAATAATATGTACATAACCTACATAATTT [XGTACX_site852]  8.11 ± 0.42
33. TATTATAATAAGAAGTGTACGTGTTTTTATAAATAA [XGTACX_site575]  8.17 ± 0.14
34. TTCACTAATAAATACGCACACATATACAGATATATA [CACACA_site4887]  8.34 ± 0.28
35. ATTACAATATATACGTGTACATATTACCACCGCTAC [XGTACX_site2308]  8.46 ± 0.7
36. GGATGCACACAAAAGGGTACATAAGAAAAAAACAGG [XGTACX_site8570]  8.61 ± 0.54
37. AAGTTATATTTGTGTACACATAATTTTATACTAATA [CACACA_site5553]  8.82 ± 0.33
38. GTAACTTTATTATACTGTACTATTATATAAGCACAC [XGTACX_site2859]  8.95 ± 0.23
39. ATAAAAATATTACGCACACACAAACTTATTCATTAT [CACACA_site1969]  9.22 ± 0.028
40. ATTCTACACAGACATACACACATATATATATATATA [CACACA_site5826]  9.34 ± 0.56
41. TGGGTAAACAAACACACACACATATATATATATATA [CACACA_site1992]  9.35 ± 0.13
42. TTTAAGCAAAAACACACACACATATATATATATATA [CACACA_site349]  9.45 ± 0.41
43. TGTAAAAAATTTAACACACACATATATATATATATA [CACACA_site2585]  9.55 ± 0.4
44. TATATATATTTATGCACACAAAATATATTATAGAAT [CACACA_site3740]  9.99 ± 0.4
